Test results reported in PubChem BioAssay AID2147 (National Center for Advancing Translational Sciences (NCATS), 2009).
In all, about 230,000 compounds went through this assay and about 3,600 (1.6%) were called active. The shares of active, inactive and inconclusive entries below differ from those in the screen. Calls come from the whole dose curve; as a rule, active = well fitted inhibition curve with a large enough effect (not every such curve was filed as active); inconclusive = small, poorly fitted or top-dose-only effect, or another doubt; inactive = no such curve, though single readings can be large or run the other way. Where the call is inconclusive, the potency comes from a doubtful curve fit.

biological target: Lysine-specific demethylase 4E (Homo sapiens) (UniProt B2RXH2); assay: qHTS Assay for Inhibitors of Human Jumonji Domain Containing 2E (JMJD2E); conditions: JMJD2E catalytic domain, FDH-coupled NADH fluorescence (FDH is formaldehyde dehydrogenase); series mostly up to 57.1 µM
Source text: Assay Provider: Structural Genomics Consortium [SGC] Screening Center PI: Austin, C.P. Screening Center: NIH Chemical Genomics Center [NCGC] The fine interplay among methylation states of several lysine residues on the tails of histone proteins is a major determinant of the transcriptional state of the associated DNA coding regions and is commonly referred to as the histone code. Histone lysine demethylases catalyze the removal of methyl groups from methylated lysine sidechains on histones H3 and H4, thus antagonizing the reactions catalyzed by histone lysine methyltransferases. […] In search for novel inhibitors of JMJD2E demethylase, a member of the largest set of histone demethylases belonging to the Fe(II) and 2-oxoglutarate oxygenase (2OG) superfamily, we performed a quantitative high-throughput screen (Inglese 2006) by using an assay which utilizes a trimethylated peptide substrate corresponding to a fragment of histone H3 (sequence ARKme3STGGK) with detection of the formaldehyde co-product in real time by a formaldehyde dehydrogenase (FDH) coupled reaction. FDH catalyzes oxidation of formaldehyde to formic acid with the concomitant reduction of the non-fluorescent beta-nicotinamide adenine dinucleotide hydrate (NAD+) cofactor to the fluorescent NADH co-product. References: Inglese, J., Auld, D., Jadhav, A., Johnson, R., Simeonov, A., Yasgar, A., Zheng, W. and Austin, C. Proc Natl Acad Sci USA 2006, 103, 11473-11478. N. R. Rose, S. S. Ng, J. Mecinovic, B. M. Lienard, S. H. Bello, Z. Sun, M. A. McDonough, U. Oppermann and C. J. Schofield, J Med Chem, 2008, 51, 7053-7056. Sakurai, M., Rose, N., Schultz, L., Quinn, A., Jadhav, A., Ng, S., Oppermann, U., Schofield, C.J. and Simeonov, A. Mol BioSystems 2009, in press. S. Michael, D. Auld, C. Klumpp, A. Jadhav, W. Zheng, N. Thorne, C. Austin, J. Inglese and A. Simeonov, Assay Drug Dev Technol, 2008, 6, 637-657.
Reagents and Controls: Ferrous ammonium sulfate, (+)-sodium L-ascorbate, beta-nicotinamide adenine dinucleotide hydrate (NAD+), Tween-20, formaldehyde dehydrogenase from P. putida (FDH), and disodium 2-oxoglutarate were from Sigma (St. Louis, MO). Black solid-bottom 384-well or 1,536-well assay plates were from Greiner Bio-One (Monroe, NC). Enzyme was supplied by Prof. Udo Oppermann, SGC-Oxford. The catalytic domain of human JMJD2E (residues 1-337) was produced as an N-terminally His6-tagged protein in E. coli, and purified by Ni-affinity chromatography and size-exclusion chromatography, and stored in HEPES 50 mM/ NaCl 500 mM pH 7.5, as reported in Rose 2008. The trimethylated histone peptide substrate ARK(me3)STGGK was synthesized and HPLC-purified by the Tufts University Core Facility (Boston, MA). Substrate solution (Sakurai 2009) contained 50 uM ARK(me3)STGGK, 0.00025 U/uL FDH, 50 uM 2-oxoglutarate, 250 uM NAD+, 1 mM ascorbate, and 10 uM ferrous ammonium sulfate. Controls and plate map: Buffer (150 mM HEPES pH 7.5 containing 0.01% Tween-20) in columns 3 and 4 as negative control (no enzyme) and 100 nM JMJD2E final concentration in columns 1,2, and 5-48. Assay Steps: Enzyme and buffer solutions (3 uL) were dispensed into a 1,536-well Greiner black solid-bottom assay plate. The library compounds (23 nL) were transferred using a Kalypsys pintool equipped with 1,536-pin array. The plate was incubated at room temperature (15 min), and then a 1 uL aliquot of substrate solution was added to initiate the reaction. The plate was transferred to ViewLux imager where an initial reading using standard UV optics (Ex 340 nm, Em 450 nm) was obtained. The plate was then removed from the reader, incubated for 30 minutes at room temperature, and returned to the reader for a second fluorescence reading. A fully automated robotic screening system (Kalypsys Inc, San diego, CA) was used to perform the above steps as described previously (Michael 2008). […]
Note: nearly all actives have a fitted effect of over 50% in size.
Potency is the fitted concentration of half-maximal effect; tags give direction and shape of the fitted curve.

Sequence of UniProt B2RXH2 (B2RXH2 whole entry, looked up, the tested form may be a part): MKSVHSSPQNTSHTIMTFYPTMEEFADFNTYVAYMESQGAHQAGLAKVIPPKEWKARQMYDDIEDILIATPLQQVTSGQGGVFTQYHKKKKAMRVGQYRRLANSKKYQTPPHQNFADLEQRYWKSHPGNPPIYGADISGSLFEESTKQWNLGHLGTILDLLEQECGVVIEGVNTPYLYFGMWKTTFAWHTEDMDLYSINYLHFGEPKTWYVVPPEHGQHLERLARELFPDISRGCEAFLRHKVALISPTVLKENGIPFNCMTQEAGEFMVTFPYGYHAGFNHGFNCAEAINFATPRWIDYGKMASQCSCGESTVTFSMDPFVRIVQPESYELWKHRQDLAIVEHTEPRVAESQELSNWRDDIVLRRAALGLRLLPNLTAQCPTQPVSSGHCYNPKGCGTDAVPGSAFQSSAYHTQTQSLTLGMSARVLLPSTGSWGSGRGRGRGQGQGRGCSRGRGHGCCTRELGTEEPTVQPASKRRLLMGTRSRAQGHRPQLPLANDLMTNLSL

Compound | Potency
CCOC(=O)c1ccccc1Nc1cn(C(C)=O)c2ccccc12 | inconclusive: 28.2 µM [inhibitor, partial curve]
COc1ccccc1-[n+]1c(C)cc(/C=C2\Sc3ccccc3N2C)cc1C | inconclusive: 20 µM [inhibitor, partial curve, poor fit]
Cc1ccc(OCC(=O)Nc2ccc3c(c2)nc(CCN2CCOCC2)n3C)cc1 | inconclusive: 39.8 µM [inhibitor, single point]
c1ccc(CNn2c(N3CCOCC3)nc3ccccc32)cc1 | inconclusive: 39.8 µM [inhibitor, single point]
CCOC(=O)Cc1cc(=O)n2[nH]cc(-c3ccc(Cl)cc3)c2n1 | inconclusive: 25.1 µM [inhibitor, partial curve]
C#CCNC(=O)C1=C[C@H](c2ccc(C(F)(F)F)cc2)C[C@H](OCc2ccc(CO)cc2)O1 | inconclusive: 28.2 µM [inhibitor, single point]
COc1nc(-c2cccs2)cc(-c2ccc(C)cc2)c1C#N | inconclusive: 31.6 µM [inhibitor, partial curve]
N#Cc1c(N)nc2c3c(sc(=N)c2c1N)NC(=O)CC3c1ccccc1 (stereo not drawn) | inconclusive: 35.5 µM [inhibitor, single point]
Cc1cccn2cc(-c3ccc(NC(=O)Cc4ccccc4)cc3)nc12 | inconclusive: 31.6 µM [inhibitor, partial curve]
O=C(NCc1ccccc1)c1cc(=O)[nH]c2ccccc12 | inconclusive: 39.8 µM [inhibitor, single point]
COc1cccc(-c2nn(C)c3sc(C(=O)NCc4ccc5c(c4)OCO5)cc23)c1 | inconclusive: 31.6 µM [inhibitor, partial curve]
COC(=O)c1cc(NC(=O)c2cc(-c3ccc(Cl)cc3)oc2C(F)(F)F)ccc1N1CCOCC1 | inconclusive: 39.8 µM [inhibitor, single point]
Cc1cccnc1NC(=O)c1cc2c(=O)oc3ccccc3c2s1 | inconclusive: 25.1 µM [inhibitor, single point]
Cc1cc2nc3ccc(=[N+](C)C)cc-3sc2cc1N | active: 14.1 µM
CCN(CC)CCN1C(=O)C(=O)/C(=C(/O)c2ccncc2)C1c1ccccc1 (stereo not drawn) | inconclusive: 25.1 µM [inhibitor, single point]
S=C(Nc1ccccc1Cl)N1CCCC1 | inactive
CCOc1ccc(S(=O)(=O)Nc2cc(OC)c(OC)cc2C(=O)O)cc1 | inconclusive: 31.6 µM [inhibitor, partial curve]
COc1ccc(N2CCN(C(c3cc4cc(C)ccc4[nH]c3=O)c3nnnn3Cc3ccccc3)CC2)cc1 (stereo not drawn) | inconclusive: 10 µM [inhibitor, partial curve]
CCOC(=O)C=C(C(=O)OCC)C(=O)OCC | inactive
COc1ccccc1N1CCN(CC(=O)Nc2c(C)n[nH]c2C)CC1 | inactive
COC(=O)C1=C(C)NC(C)=C(C(=O)OC)C1c1ccc(OC(=O)c2oc3ccccc3c2C)c(OC)c1 | inconclusive: 31.6 µM [inhibitor, partial curve]
Cc1cc(/C=C2\C(=N)N3N=C(S(C)(=O)=O)SC3=NC2=O)c(C)n1Cc1ccccc1 | inconclusive: 25.1 µM [inhibitor, partial curve]

Compound | Potency
Cc1ccc2cccc(OCC(=O)c3cc(C)n(Cc4ccco4)c3C)c2n1 | inactive
CCOC(=O)Nc1oc2ccccc2c(=O)c1C | inconclusive: 31.6 µM [inhibitor, single point]
O=C(/C=C/c1ccco1)Nc1ccc2nn(-c3ccccc3)nc2c1 | inconclusive: 39.8 µM [inhibitor, single point]
CN1CCN(C(=O)c2cc3nc(-c4ccccc4)cc(-c4ccccc4)n3n2)CC1 | inconclusive: 28.2 µM [inhibitor, partial curve]
c1coc(C2Nc3ccccc3C3OCCC23)c1 (stereo not drawn) | inconclusive: 31.6 µM [inhibitor, partial curve]
COC(=O)c1ccccc1-c1ccc(/C=N/NC(=O)c2cc3ccccc3o2)o1 | inconclusive: 35.5 µM [inhibitor, partial curve]
COc1ccc(NCC(O)Cn2c(C)c(C)c3ccccc32)cc1 (stereo not drawn) | inactive
CCN(CC)CCn1c(SCC(=O)NCc2ccco2)nc2c(sc3ccccc32)c1=O | inconclusive: 31.6 µM [inhibitor, partial curve]
CN(C)c1ccc(/C=N/NC(=O)CNC(=O)c2ccco2)cc1 | inconclusive: 28.2 µM [inhibitor, partial curve]
Cc1cc(N2CCOCC2)nc2ccc(NC(=S)N3CCCCC3C)cc12 (stereo not drawn) | inconclusive: 28.2 µM [inhibitor, partial curve]
O=C(Nn1c(O)c(C=C2N=c3ccccc3=N2)sc1=S)c1ccccc1Cl | inactive
COc1ccccc1/C=C/C=N/n1c(-c2ccncc2)n[nH]c1=S | inactive
CC(=N)c1c(O)c2ccccc2oc1=O | inactive
N#C/C(=C\c1ccc(N2CCOCC2)o1)c1ccccc1 | inconclusive: 28.2 µM [inhibitor, single point]
Cc1ccc2ccc(C(Nc3ccccn3)c3ccccc3)c(O)c2n1 (stereo not drawn) | inconclusive: 39.8 µM [inhibitor, single point]
COc1ccc(/C=C/C(=O)C2C(=O)C=C(C)OC2=O)cc1O (stereo not drawn) | inconclusive: 31.6 µM [inhibitor, single point]
CN1CCC2(CC1)C1CN(C)CC=C1C(C#N)=C(N)C2(C#N)C#N (stereo not drawn) | inconclusive: 28.2 µM [inhibitor, partial curve]
COc1ccc(Nc2nnc(SC(C(=O)Nc3ccc(OC)c(Cl)c3)c3ccccc3)s2)cc1 (stereo not drawn) | inactive
O=C(Nc1nnc(-c2ccccc2F)s1)Nc1ccccc1F | inconclusive: 35.5 µM [inhibitor, single point]
O=P(c1ccccc1)(c1ccccc1)C(O)c1ccccn1 (stereo not drawn) | inconclusive: 31.6 µM [inhibitor, single point]
Cc1ccc2cc(CCNC(=O)CC(C)(C)C)c(=O)[nH]c2c1C | inactive
